Drawing on paper PMC9223716, this text covers binding for five molecules.

Sequences of proteins named here, by UniProt entry; tags and fusion partners are left off.
UniProt P70227: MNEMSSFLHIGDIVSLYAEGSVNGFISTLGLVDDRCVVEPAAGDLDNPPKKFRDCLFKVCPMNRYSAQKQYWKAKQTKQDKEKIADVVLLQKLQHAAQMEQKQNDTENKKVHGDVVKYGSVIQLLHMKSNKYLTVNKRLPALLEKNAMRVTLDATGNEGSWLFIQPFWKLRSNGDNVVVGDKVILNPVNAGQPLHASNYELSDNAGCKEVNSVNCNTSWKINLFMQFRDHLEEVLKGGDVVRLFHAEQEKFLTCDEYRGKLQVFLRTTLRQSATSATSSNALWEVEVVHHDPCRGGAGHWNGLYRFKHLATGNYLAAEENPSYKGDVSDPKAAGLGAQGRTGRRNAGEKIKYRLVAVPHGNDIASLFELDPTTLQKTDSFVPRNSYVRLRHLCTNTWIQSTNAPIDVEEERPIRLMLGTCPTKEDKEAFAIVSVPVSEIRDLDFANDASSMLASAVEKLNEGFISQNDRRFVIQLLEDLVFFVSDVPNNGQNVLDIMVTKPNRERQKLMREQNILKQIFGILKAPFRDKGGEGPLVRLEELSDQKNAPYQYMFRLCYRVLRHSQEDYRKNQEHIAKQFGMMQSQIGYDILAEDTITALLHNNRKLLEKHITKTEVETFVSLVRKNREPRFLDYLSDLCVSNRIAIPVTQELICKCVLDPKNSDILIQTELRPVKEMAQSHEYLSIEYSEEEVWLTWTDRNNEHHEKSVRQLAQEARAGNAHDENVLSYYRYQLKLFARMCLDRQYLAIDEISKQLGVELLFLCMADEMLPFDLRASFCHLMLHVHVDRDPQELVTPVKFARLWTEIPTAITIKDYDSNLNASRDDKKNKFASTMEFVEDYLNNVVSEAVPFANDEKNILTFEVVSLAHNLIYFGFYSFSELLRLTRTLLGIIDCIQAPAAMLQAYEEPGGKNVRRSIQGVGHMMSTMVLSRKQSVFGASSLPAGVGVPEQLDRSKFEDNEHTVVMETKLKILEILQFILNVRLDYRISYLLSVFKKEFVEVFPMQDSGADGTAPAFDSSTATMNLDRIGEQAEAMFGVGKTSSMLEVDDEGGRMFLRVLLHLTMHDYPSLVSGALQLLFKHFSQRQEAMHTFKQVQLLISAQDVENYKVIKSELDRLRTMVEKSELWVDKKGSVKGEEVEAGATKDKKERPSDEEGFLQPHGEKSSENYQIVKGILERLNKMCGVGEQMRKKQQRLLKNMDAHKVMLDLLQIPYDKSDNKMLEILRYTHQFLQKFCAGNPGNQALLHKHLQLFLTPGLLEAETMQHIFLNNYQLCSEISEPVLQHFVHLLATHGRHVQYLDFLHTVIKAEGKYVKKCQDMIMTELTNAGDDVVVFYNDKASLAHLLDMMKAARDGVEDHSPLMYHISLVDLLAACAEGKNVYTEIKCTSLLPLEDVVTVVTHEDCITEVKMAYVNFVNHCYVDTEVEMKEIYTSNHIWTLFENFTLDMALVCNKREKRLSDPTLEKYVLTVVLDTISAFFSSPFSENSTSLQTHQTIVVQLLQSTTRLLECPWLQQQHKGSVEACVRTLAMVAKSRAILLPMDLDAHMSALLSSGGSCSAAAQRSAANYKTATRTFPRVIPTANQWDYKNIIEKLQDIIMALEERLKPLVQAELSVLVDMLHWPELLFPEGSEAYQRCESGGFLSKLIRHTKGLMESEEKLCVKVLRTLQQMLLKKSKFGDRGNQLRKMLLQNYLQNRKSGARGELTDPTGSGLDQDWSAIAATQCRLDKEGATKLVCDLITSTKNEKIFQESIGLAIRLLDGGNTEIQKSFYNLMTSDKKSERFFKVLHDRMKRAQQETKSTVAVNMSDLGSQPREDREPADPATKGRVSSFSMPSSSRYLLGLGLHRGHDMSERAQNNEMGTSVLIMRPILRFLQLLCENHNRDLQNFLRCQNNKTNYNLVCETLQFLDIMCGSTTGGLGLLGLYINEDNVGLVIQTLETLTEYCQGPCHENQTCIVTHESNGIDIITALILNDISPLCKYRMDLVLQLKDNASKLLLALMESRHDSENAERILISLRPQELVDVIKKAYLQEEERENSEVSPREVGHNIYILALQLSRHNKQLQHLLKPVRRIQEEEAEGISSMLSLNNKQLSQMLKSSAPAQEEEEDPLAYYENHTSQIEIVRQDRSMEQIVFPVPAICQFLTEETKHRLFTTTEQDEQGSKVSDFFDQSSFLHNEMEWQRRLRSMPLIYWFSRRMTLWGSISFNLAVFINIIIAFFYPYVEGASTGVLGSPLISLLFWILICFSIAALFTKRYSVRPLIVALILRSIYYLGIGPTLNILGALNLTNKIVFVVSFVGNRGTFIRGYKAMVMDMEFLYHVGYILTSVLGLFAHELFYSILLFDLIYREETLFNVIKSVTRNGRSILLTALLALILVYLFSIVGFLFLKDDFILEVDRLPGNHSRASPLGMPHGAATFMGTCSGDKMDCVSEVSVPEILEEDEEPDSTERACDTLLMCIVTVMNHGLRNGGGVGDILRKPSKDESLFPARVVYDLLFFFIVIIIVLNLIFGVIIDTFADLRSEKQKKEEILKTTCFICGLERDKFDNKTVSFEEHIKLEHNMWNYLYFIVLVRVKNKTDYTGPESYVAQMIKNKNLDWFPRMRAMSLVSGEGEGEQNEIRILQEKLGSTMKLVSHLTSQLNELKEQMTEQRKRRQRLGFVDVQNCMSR
UniProt P11881: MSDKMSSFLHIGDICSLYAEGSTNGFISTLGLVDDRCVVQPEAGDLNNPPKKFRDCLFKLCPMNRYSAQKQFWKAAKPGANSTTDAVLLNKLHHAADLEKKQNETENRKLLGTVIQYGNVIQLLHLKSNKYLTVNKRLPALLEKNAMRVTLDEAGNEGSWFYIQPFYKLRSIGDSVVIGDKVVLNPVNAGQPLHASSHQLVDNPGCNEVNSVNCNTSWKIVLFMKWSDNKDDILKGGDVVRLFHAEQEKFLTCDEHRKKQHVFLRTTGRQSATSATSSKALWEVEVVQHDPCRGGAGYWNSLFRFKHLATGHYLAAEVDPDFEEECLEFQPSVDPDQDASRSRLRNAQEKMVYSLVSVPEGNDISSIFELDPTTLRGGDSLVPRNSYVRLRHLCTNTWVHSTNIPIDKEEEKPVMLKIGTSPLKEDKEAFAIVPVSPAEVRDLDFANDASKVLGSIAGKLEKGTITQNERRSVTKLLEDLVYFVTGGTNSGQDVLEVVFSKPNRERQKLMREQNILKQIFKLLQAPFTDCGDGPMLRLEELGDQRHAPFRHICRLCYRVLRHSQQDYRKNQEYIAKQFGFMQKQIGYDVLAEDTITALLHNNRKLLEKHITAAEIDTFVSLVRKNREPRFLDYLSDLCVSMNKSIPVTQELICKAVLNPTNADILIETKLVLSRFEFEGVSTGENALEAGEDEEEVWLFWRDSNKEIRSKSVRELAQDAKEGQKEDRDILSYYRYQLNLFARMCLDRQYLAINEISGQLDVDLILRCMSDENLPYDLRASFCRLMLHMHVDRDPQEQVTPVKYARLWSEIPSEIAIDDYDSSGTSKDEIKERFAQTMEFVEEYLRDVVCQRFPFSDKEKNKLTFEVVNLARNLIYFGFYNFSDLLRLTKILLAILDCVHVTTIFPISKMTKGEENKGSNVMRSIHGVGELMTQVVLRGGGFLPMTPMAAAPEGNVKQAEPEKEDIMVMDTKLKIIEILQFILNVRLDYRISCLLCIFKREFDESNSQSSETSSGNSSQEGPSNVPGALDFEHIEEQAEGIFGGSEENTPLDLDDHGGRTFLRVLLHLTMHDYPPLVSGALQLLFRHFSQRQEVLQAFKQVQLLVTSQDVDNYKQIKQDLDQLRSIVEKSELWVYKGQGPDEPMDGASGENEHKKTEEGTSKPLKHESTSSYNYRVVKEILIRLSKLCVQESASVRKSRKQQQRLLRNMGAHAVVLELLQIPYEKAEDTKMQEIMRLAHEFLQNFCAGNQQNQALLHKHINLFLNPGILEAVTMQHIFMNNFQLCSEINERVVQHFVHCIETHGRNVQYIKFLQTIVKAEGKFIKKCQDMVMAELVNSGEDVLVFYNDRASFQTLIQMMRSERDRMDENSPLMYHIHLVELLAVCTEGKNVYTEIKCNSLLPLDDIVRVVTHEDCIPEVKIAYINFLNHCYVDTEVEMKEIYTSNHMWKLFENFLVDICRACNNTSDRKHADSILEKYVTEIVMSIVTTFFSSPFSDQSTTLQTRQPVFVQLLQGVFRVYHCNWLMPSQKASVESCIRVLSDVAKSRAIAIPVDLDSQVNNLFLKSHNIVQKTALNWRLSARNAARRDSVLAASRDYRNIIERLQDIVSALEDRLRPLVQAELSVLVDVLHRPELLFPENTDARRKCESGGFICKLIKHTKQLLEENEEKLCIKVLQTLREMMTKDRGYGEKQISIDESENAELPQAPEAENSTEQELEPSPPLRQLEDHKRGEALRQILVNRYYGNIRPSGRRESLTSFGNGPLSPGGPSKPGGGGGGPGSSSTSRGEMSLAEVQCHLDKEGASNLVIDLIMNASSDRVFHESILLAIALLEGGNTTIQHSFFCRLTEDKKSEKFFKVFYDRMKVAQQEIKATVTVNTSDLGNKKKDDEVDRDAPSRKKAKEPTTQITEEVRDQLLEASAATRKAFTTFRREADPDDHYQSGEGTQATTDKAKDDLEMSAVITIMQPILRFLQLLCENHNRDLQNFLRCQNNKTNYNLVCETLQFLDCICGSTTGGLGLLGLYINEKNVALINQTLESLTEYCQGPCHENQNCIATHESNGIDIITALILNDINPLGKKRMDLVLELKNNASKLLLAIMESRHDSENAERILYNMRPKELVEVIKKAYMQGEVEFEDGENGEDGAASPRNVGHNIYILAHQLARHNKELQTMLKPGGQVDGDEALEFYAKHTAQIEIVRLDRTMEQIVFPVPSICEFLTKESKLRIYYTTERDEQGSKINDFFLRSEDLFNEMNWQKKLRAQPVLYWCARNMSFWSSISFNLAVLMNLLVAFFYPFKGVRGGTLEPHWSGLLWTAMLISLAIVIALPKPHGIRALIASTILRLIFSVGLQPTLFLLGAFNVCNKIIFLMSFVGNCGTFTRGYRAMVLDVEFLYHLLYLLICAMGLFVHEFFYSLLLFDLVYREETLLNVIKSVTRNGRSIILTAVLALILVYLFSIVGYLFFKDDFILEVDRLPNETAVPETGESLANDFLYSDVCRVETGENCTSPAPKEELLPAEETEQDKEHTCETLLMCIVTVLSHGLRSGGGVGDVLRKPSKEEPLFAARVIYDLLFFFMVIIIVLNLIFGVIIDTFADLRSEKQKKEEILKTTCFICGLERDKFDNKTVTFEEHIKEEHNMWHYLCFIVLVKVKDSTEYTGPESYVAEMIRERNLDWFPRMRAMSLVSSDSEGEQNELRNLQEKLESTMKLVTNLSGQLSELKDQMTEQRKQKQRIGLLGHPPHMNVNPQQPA

Experiment [1] has as its target T1, Inositol 1,4,5-triphosphate receptor-associated 2 (IRAG2) (mouse (endogenous in murine platelets)) (UniProt Q60664).
T1 sequence: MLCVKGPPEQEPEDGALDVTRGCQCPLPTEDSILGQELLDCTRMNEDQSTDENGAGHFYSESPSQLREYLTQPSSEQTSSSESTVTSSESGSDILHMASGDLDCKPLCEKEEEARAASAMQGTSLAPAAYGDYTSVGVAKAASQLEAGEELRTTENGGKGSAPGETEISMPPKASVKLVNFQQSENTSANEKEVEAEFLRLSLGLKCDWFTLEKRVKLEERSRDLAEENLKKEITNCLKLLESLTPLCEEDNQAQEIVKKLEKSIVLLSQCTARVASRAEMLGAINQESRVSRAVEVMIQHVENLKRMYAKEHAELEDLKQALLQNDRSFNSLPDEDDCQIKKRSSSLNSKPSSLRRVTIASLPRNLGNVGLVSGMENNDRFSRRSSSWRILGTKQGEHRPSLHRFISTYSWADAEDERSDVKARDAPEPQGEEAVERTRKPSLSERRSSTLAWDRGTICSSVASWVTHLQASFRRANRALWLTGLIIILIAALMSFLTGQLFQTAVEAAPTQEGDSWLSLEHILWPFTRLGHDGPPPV
The experiment can be described thus: co-IP; IRAG2 precipitated with anti-mouse LRMP (C-terminal) antibody and Protein-A-Sepharose from 1000 µg platelet lysate of IRAG2-WT and IRAG2-KO mice; 50 mM Tris HCl, 15 mM EGTA, 100 mM NaCl, 0.1% Triton X-100, pH 7.5, 1 mM DTT; Western Blot of partners.

For experiment [2], the target named is T1, Inositol 1,4,5-triphosphate receptor-associated 2 (IRAG2) (mouse (endogenous in murine platelets)). The description is as above. The source holds these as a separate data set.
In experiment [3] the target is T2, Inositol 1,4,5-triphosphate receptor-associated cGMP kinase substrate 1 (IRAG1) (mouse (endogenous in murine platelets)) (UniProt Q9WUX5).
T2 sequence: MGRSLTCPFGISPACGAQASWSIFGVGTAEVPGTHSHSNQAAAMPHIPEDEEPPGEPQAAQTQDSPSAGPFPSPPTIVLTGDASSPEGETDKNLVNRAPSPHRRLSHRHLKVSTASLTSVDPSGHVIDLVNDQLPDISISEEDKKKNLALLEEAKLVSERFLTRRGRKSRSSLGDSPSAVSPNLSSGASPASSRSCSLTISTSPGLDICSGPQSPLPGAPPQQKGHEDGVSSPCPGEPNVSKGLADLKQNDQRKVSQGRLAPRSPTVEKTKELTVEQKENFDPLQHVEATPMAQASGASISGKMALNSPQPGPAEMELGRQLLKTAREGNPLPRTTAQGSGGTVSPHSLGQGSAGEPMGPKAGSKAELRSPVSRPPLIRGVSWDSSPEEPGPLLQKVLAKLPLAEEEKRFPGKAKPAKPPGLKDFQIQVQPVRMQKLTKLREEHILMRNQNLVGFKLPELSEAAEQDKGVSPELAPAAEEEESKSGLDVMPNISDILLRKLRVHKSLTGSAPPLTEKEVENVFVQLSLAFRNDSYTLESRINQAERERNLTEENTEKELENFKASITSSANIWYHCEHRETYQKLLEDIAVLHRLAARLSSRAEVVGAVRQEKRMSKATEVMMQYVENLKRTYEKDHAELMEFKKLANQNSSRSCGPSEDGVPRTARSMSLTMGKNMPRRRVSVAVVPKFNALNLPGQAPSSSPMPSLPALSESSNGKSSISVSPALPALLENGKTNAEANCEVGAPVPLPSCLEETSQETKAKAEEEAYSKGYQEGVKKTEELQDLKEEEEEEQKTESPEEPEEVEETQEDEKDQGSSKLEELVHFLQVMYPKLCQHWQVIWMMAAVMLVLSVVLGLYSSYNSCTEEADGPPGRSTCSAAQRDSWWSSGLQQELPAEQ
The experiment can be described thus: co-IP; IRAG1 precipitated with IRAG1-specific antibody from platelets of IRAG2-WT and IRAG2-KO mice; Western Blot for IRAG2 (Figure S2). A general note: In western blotting, separated proteins are transferred to a membrane and probed.

Where two headings read alike, the source gives them in different places. Results are given in words; binding and its absence hold for the method and conditions named. Binding seen in cells or lysates may run through a third protein. Some binding calls cover weakened binding; strength is not graded here.

Consider “IP3 receptor type 3 (IP3R3) (from UniProt P70227 1-2670)”, for which, in experiment [1], the binding entry is reported as “binds weakly”.

Turning to “IP3 receptor type 1 (IP3R1) (from UniProt P11881 1-2749)”, the binding entry in experiment [1] was “binds weakly”.

B1: Inositol 1,4,5-triphosphate receptor-associated cGMP kinase substrate 1 (IRAG1) (protein, UniProt Q9WUX5 1-899)
chain: MGRSLTCPFGISPACGAQASWSIFGVGTAEVPGTHSHSNQAAAMPHIPEDEEPPGEPQAAQTQDSPSAGPFPSPPTIVLTGDASSPEGETDKNLVNRAPSPHRRLSHRHLKVSTASLTSVDPSGHVIDLVNDQLPDISISEEDKKKNLALLEEAKLVSERFLTRRGRKSRSSLGDSPSAVSPNLSSGASPASSRSCSLTISTSPGLDICSGPQSPLPGAPPQQKGHEDGVSSPCPGEPNVSKGLADLKQNDQRKVSQGRLAPRSPTVEKTKELTVEQKENFDPLQHVEATPMAQASGASISGKMALNSPQPGPAEMELGRQLLKTAREGNPLPRTTAQGSGGTVSPHSLGQGSAGEPMGPKAGSKAELRSPVSRPPLIRGVSWDSSPEEPGPLLQKVLAKLPLAEEEKRFPGKAKPAKPPGLKDFQIQVQPVRMQKLTKLREEHILMRNQNLVGFKLPELSEAAEQDKGVSPELAPAAEEEESKSGLDVMPNISDILLRKLRVHKSLTGSAPPLTEKEVENVFVQLSLAFRNDSYTLESRINQAERERNLTEENTEKELENFKASITSSANIWYHCEHRETYQKLLEDIAVLHRLAARLSSRAEVVGAVRQEKRMSKATEVMMQYVENLKRTYEKDHAELMEFKKLANQNSSRSCGPSEDGVPRTARSMSLTMGKNMPRRRVSVAVVPKFNALNLPGQAPSSSPMPSLPALSESSNGKSSISVSPALPALLENGKTNAEANCEVGAPVPLPSCLEETSQETKAKAEEEAYSKGYQEGVKKTEELQDLKEEEEEEQKTESPEEPEEVEETQEDEKDQGSSKLEELVHFLQVMYPKLCQHWQVIWMMAAVMLVLSVVLGLYSSYNSCTEEADGPPGRSTCSAAQRDSWWSSGLQQELPAEQ
In the case of B1, the binding entry in experiment [2] is “no binding”.

B2: cGMP-dependent protein kinase I beta (PKGIβ) (enzyme, UniProt P0C605-2 1-686)
chain: MGTLRDLQYALQEKIEELRQRDALIDELELELDQKDELIQKLQNELDKYRSVIRPATQQAQKQSASTLQGEPRTKRQAISAEPTAFDIQDLSHVTLPFYPKSPQSKDLIKEAILDNDFMKNLELSQIQEIVDCMYPVEYGKDSCIIKEGDVGSLVYVMEDGKVEVTKEGVKLCTMGPGKVFGELAILYNCTRTATVKTLVNVKLWAIDRQCFQTIMMRTGLIKHTEYMEFLKSVPTFQSLPDEILSKLADVLEETHYENGEYIIRQGARGDTFFIISKGQVNVTREDSPSEDPVFLRTLGKGDWFGEKALQGEDVRTANVIAAEAVTCLVIDRDSFKHLIGGLDDVSNKAYEDAEAKAKYEAEAAFFANLKLSDFNIIDTLGVGGFGRVELVQLKSEESKTFAMKILKKRHIVDTRQQEHIRSEKQIMQGAHSDFIVRLYRTFKDSKYLYMLMEACLGGELWTILRDRGSFEDSTTRFYTACVVEAFAYLHSKGIIYRDLKPENLILDHRGYAKLVDFGFAKKIGFGKKTWTFCGTPEYVAPEIILNKGHDISADYWSLGILMYELLTGSPPFSGPDPMKTYNIILRGIDMIEFPKKIAKNAANLIKKLCRDNPSERLGNLKNGVKDIQKHKWFEGFNWEGLRKGTLTPPIIPSVASPTDTSNFDSFPEDSDEPPPDDNSGWDIDF
Take B2: the binding result in experiment [2] was “no binding”.

B3: Inositol 1,4,5-triphosphate receptor-associated 2 (IRAG2) (protein, UniProt Q60664 1-539)
chain: MLCVKGPPEQEPEDGALDVTRGCQCPLPTEDSILGQELLDCTRMNEDQSTDENGAGHFYSESPSQLREYLTQPSSEQTSSSESTVTSSESGSDILHMASGDLDCKPLCEKEEEARAASAMQGTSLAPAAYGDYTSVGVAKAASQLEAGEELRTTENGGKGSAPGETEISMPPKASVKLVNFQQSENTSANEKEVEAEFLRLSLGLKCDWFTLEKRVKLEERSRDLAEENLKKEITNCLKLLESLTPLCEEDNQAQEIVKKLEKSIVLLSQCTARVASRAEMLGAINQESRVSRAVEVMIQHVENLKRMYAKEHAELEDLKQALLQNDRSFNSLPDEDDCQIKKRSSSLNSKPSSLRRVTIASLPRNLGNVGLVSGMENNDRFSRRSSSWRILGTKQGEHRPSLHRFISTYSWADAEDERSDVKARDAPEPQGEEAVERTRKPSLSERRSSTLAWDRGTICSSVASWVTHLQASFRRANRALWLTGLIIILIAALMSFLTGQLFQTAVEAAPTQEGDSWLSLEHILWPFTRLGHDGPPPV
Turning to B3, the binding entry in experiment [3] is on record as “no binding”.
